According to PubChem BioAssay AID1794842 (National Center for Advancing Translational Sciences (NCATS), 2023):
Screen size: about 2,800 compounds; fewer than 10 were called active. Calls come from the whole dose curve; as a rule, active = well fitted curve in the direction sought with a large enough effect; inconclusive = small, poorly fitted or top-dose-only effect, or another doubt; inactive = no such curve, though single readings can be large or run the other way. The list shows a part of the results.

These compounds were tested against Metallo-beta-lactamase type 2 (Klebsiella pneumoniae) (UniProt C7C422) (assay: qHTS to identify inhibitors of the New Delhi Metallo-beta-lactamase (NDM): Meropenem screen against the machine-based learning selections.). Settings: Purified NDM-1, meropenem hydrolysis, absorbance 300 nm; at 38.4 µM (top of the series) unless noted.
Summary of the method: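 NDM-1 (2 nM final) in 50 mM HEPES pH 7.0, 1 uM Zn2SO4, 0.01% Tween20 was preincubated with compounds for >30 min. Nitrocefin (16.7 uM final) was read at 485 nm after 15 min, and meropenem (50 uM final) at 300 nm after 30 min.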
Note: % of control where 0% means no effect.

Chain of UniProt C7C422 (C7C422 whole entry, looked up): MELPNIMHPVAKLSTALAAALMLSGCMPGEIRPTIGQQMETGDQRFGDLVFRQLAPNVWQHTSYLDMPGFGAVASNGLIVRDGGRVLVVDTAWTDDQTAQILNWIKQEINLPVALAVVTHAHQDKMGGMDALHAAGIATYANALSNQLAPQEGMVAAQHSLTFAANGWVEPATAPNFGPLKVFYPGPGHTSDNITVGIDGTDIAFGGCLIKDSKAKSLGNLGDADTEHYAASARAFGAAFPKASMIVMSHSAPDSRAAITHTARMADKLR

Activity change, negative = inhibition, inactive:
O=C(NC1CCCCC1)O[C@@H]1CO[C@H]2[C@@H]1OC[C@@H]2NS(=O)(=O)c1ccc(Cl)cc1 -0.326%
COc1ccc(CC(=O)N(C)Cc2ccc(F)cc2)cc1 -0.957% [at 57.5 µM]
Cc1ccc(-c2cn3c(n2)CO[C@@H](CNS(=O)(=O)c2cccs2)C3)cc1 -1.65% [at 57.5 µM]
O=C(O)c1cccc(-c2n[nH]c3c2CC(=O)N(CC2CCOCC2)C3)c1 18.9% [at 57.5 µM]
Cc1nc(CN2CCN(c3ncc(F)c(N(C)C)n3)CC2)cs1 27.7%
C=CCN1CCN(C(=O)[C@@H]2Cc3c[nH]c4cccc(c34)[C@H](CC(C)C)N2)CC1 4.68% [at 57.5 µM]
O=C(NC1CCN(c2cc(-c3ccc(F)cc3)[nH]n2)CC1)c1cccc2[nH]ccc12 0.993%
CN(C)c1ccc(C(=O)N2CCN3C(=O)N(Cc4ccccc4)C(=O)[C@H]3C2)cc1 11.3% [at 57.5 µM]
CCOCC(=O)N[C@H]1CN(Cc2nc(C)c(C)n2C)C[C@@H]1C(C)C 28.1%
c1ccc(-c2nc3ccncc3[nH]2)nc1 104% [at 76.7 µM]
Cc1ccc2c(c1)N1C(=O)OC[C@@H]1CCN(C(=O)Nc1ccccc1)C2 -2.46% [at 57.5 µM]
CC1=C[C@@H](CNCc2ccc(C#N)cc2)[C@H](C(C)C)C[C@H]1Cc1nnc(-c2cccnc2)o1 1.16%
CCOCCn1c(=O)[nH]c2cc(C(=O)NCc3cc(=O)[nH]c(C)n3)ccc21 6.67%
CC(C)C(=O)N[C@H]1[C@H](O)[C@H](O)C[C@@H]1c1cccnc1 -2.43% [at 76.7 µM]
O=C(N[C@H]1CO[C@H]2[C@@H]1OC[C@@H]2n1nnnc1-c1ccc2c(c1)OCO2)c1ccc(C(F)(F)F)cc1 1.02%
CN1C(=O)CO[C@H](c2ccc(NC(=O)c3ccc(-c4ccccc4)cc3)cc2)[C@H]1CO 0.168% [at 57.5 µM]
C=CCNC(=O)[C@@H]1Cc2cn(Cc3c(C)noc3C)c3cccc(c23)[C@H](CC(C)C)N1 6.46% [at 57.5 µM]
O=C(Cc1c[nH]c2ncc(-c3cccc(O)c3)cc12)N1CCOCC1 5.97% [at 57.5 µM]
Cc1nc2ccc(C(=O)NCc3cc4n(n3)CCN(C(=O)N(C)C)C4)cc2o1 -0.171%
COc1cc2c(cc1CN1C[C@@H]3CC[C@H](C1)N(CC1CCC1)C3=O)OCCO2 -4.4%
CC(C)(C)c1ccc(NC(=O)O[C@@H]2CO[C@H]3[C@@H]2OC[C@@H]3Nc2nccc(-c3ccccc3)n2)cc1 0.647%
CCOC(=O)N1CCN(C(=O)C(c2ccccc2C)N(C)C)CC1 (configuration not stated) 0.817%
O=C(O)C[C@@H]1CCN(C(=O)c2ccnc(Cl)c2)C[C@@H]1CCN1CCN(c2cccc(C(F)(F)F)c2)CC1 27.5%
COc1cc2c(cc1OC)C(C[C@H]1CN(C(=O)c3ccc(N(C)C)cc3)CC[C@H]1CC(=O)O)=NCC2 23.1%
CN(Cc1ccc(F)cc1)c1ccc2ncc(Nc3ccc(CCO)cc3)n2n1 66.1% [at 57.5 µM]
OCc1ccc(-c2cc(-c3cccnc3)c3cncn3c2)cc1 17.5% [at 57.5 µM]
O=C(c1ccccc1)N1CCC(c2nn(-c3ccccc3)c(=O)[nH]2)CC1 3.37%
COc1ccc2nc3n(c2c1)[C@@H](CNCc1ccccc1)COC3 4.42% [at 57.5 µM]
CC(C)CN(C)C(=O)c1cc(-c2cnn(C(C)C)c2)nc2cc(F)ccc12 1.1%
O=C(CSc1ccncc1)N1CCN2C(=O)N(Cc3ccccc3)C(=O)[C@H]2C1 27.2% [at 57.5 µM]
COc1ccc(NC(=O)Cn2c(N(C)Cc3ccccc3)nc(C)cc2=O)cc1Cl -1.01%
COCc1cc(=O)n(CC(=O)Nc2cccc(Cl)c2)c(N2CCOCC2)n1 0.573%
COc1ccc(CN(C)Cc2ccncc2C)c(OCC(O)CN2CCCC2)c1 (configuration not stated) 1.89%
CN1CCOc2c(C(=O)NCc3cccnc3)cc(-c3ccccc3O)cc21 0.385% [at 57.5 µM]
Cc1ccccc1-c1cnc2n[nH]c(-c3ccccc3)c2n1 2.04% [at 76.7 µM]
C[S+](=O)([O-])Nc1cccc(Nc2ncc(-c3cccc(F)c3)c3c2OCC3)c1 3.1% [at 57.5 µM]
COc1ccc(C[C@H](NC(=O)[C@@]2(O)C[C@@H](O)[C@H](O)[C@@H](NC(=O)CS(=O)(=O)c3ccccc3)C2)C(N)=O)cc1 -2.25%
Cc1ccc(C)c(-c2cc(C(=O)N3CCCC3c3nncn3C(C)C)[nH]n2)c1 (configuration not stated) 4.81%
CS(=O)(=O)N1CCc2ccc(C(=O)NCCN3CCc4ccccc4C3)cc21 12.7%
O=C(Nc1cccc(C(F)(F)F)c1)c1cnc2c(c1)N(Cc1ccccc1)CCC2 2.2% [at 57.5 µM]
OC1(CNCc2csc3ccc(Cl)cc23)CNCCOC1 (configuration not stated) 6.85%
O=C1NC[C@@H](CCC(=O)N2CCc3ccccc32)N2C[C@@H](NCc3ccc(CO)o3)C[C@@H]12 -0.747%
CCCCCC(=O)Nc1nc2c(s1)C[C@@H]1[C@](C)(CO)[C@H](O)CC[C@@]1(C)[C@@H]2CC(=O)NCc1cc(F)cc(F)c1 -2.82%
CN1c2cccnc2CN(Cc2ccccn2)CC[C@H]1CO 7.37% [at 57.5 µM]
O=C(C[C@@H]1O[C@H](CNC(=O)c2ccccc2)[C@@H](O)[C@H]1O)Nc1ccccc1 -2.83% [at 57.5 µM]
O=C1NCC2(CCCN(C(=O)CCc3ccc(=O)[nH]n3)C2)O1 (configuration not stated) 1.87%
CN1c2cc(C(=O)N3CCN(c4ccc(F)cc4)CC3)ccc2C(=O)N2CCCCCC21 (configuration not stated) 1.01%
COc1ccnc(CN2CCC3(CC2)CN(CCOc2ccccc2)C(=O)O3)c1OC 0.0276%
CNC(=O)c1cc(-c2ccccc2O)cc2c1OCCN2Cc1cccnc1 -0.427% [at 57.5 µM]
CC(c1ccc(-c2ccc(CC(=O)O)cn2)cc1)N1CCCCC1 (configuration not stated) -1.23%
COCc1cc(C[C@@H]2CC[C@H](O)[C@@H](CNC(=O)C(C)(C)C)O2)no1 -0.975% [at 57.5 µM]
CCOc1ccc2c(n1)CCN(C(=O)Nc1cc(C)cc(C)c1)C2 -2.06%
Cc1ccccc1-c1cc(O)c2c(c1)CNCCO2 0.257%
O=C1CC(c2ccccc2)N(C(=O)C2CC2)CCCN(C(=O)NCc2ccccc2)CCN1 (configuration not stated) 0.78%
NC(=O)c1ccc(O[C@@H]2COCC[C@H]2NC(=O)Cc2ccc(O)cc2)cc1 -0.7%
O=C(Cc1c[nH]c2ncc(-c3cccnc3)cc12)NC1CC1 12.5% [at 76.7 µM]
Cc1ccc2c(C)c(C(=O)N3CC[C@H](O)[C@@H](O)C3)oc2c1 9.82%
CN1CCCN(C[C@@H]2CN(C(=O)c3ccnn3C)C[C@@H]2CO)CC1 3.84%
COc1ccc(CN2CCNc3cc(Nc4ccccc4)ncc3C2)cc1O -0.934% [at 57.5 µM]
O=C1CO[C@H](c2ccc(NC(=O)C3CCOCC3)cc2)[C@@H](CO)N1 1.11% [at 57.5 µM]
Cc1nn(C)c2nc(-c3ccccn3)nc(NCc3ccc4c(c3)OCO4)c12 13.4%
Nc1ccc2ncnc(N3CCCCC3)c2c1 5.09%
COc1ccc(CNC(=O)CC[C@@H]2CNC(=O)[C@@H]3C[C@H](NCc4ccc(N(C)C)cc4)CN23)cc1 2.71%
Cc1nn(-c2ccccn2)c(C)c1[C@@H]1C=C[C@@H](NC(=O)c2ccco2)C1 1.96% [at 57.5 µM]
O=C(Cc1ccccc1F)N1CCC(Oc2ncccc2C(=O)N2CCCCC2)C1 (configuration not stated) -2.69%
Cc1cccc(CN2CCOc3c(O)cc(-c4ccccc4C)cc3C2)n1 1.08%
O=C(Cc1c[nH]c2ncc(-c3ccccc3)cc12)NCCCn1ccnc1 15.9% [at 57.5 µM]
CNC1CCN(c2ccc(-c3nc(CCCc4ccccc4)no3)cn2)CC1 0.895%
CC(=O)N1CCN(C(=O)c2nc(-c3ccccc3)cs2)CC(O)C1 (configuration not stated) -0.573%
CC1(CNC(=O)c2cccs2)CCOCC1 1.39%
Cc1nnc([C@H]2CCN(C3CCN(C)CC3)C2)o1 -0.195% [at 76.7 µM]
Cc1ccc(S(=O)(=O)NC[C@H]2O[C@@H](CO)[C@@H](O)[C@H]2N2CCN(c3cccc(C(F)(F)F)c3)CC2)cc1 62.2%
CC(C)c1nc2c(c(-c3ccc(O)cc3)n1)CN(C(=O)c1ccccc1F)CC2 3.24%
CC(=O)N1CCC(N2CCC[C@H]2c2nc(-c3ccnc(N4CCC(C(N)=O)CC4)c3)no2)CC1 -1.74%
COCCNS(=O)(=O)c1cc(C(=O)O)cc(-c2ccncc2)c1 -0.536%
CCC(CC)C(=O)N1CCC(N2C(=O)C3(CCCCC3)C2c2ccncc2)CC1 (configuration not stated) -0.67%
CSCC(=O)N1C[C@@H](NC(=O)Nc2ccc(F)cc2F)C[C@H]1C(=O)N[C@@H](Cc1cccs1)C(N)=O -0.0699%
